Assay results from PubChem BioAssay AID1347417 (National Center for Advancing Translational Sciences (NCATS), 2020).
Screen size: about 120,000 compounds; about 5,300 (4.4%) were called active. Inconclusive means that the source gave no clear call. Such entries were picked first, then a sample of the others. Calls follow the shape of the dose curve; as a rule, active = well fitted inhibition curve with a large enough effect; inconclusive = small, poorly fitted or top-dose-only effect; inactive = no such curve, though single readings can be large or run the other way. A potency beside an inconclusive call is a rough fit, not a confirmed value.

Test: qHTS Primary assay for Inhibitors of Plasmodium falciparum Dd2 growth in vitro; also: nearly all actives have a fitted effect of over 65% in size;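 as to activity, negative = inhibition: plate controls were DMSO vehicle for no effect and reference drug for full effect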
Details: P. falciparum Dd2 growth, SYBR Green, 72 h; activity, negative = inhibition: at 28.9 µM (top of the series) unless noted; series mostly up to 28.9 µM
Procedure, shortened: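 Readout: SYBR Green fluorescence, 485 nm excitation, 535 nm emission, after ~16 h lysis at 37C. Before that, Dd2-infected red cells (2.5% hematocrit) grew 72 h with compound, 29 uM top final concentration.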
Potency is read from the fitted curve at half-maximal effect; tags tell the direction and shape of the fitted curve.

Row | Structure (SMILES) | Potency | activity, negative = inhibition
1 | CCn1ncc(CN2C[C@@H](CO)[C@H](NC(=O)c3ccccc3)C2)c1C | inconclusive: 5.01 µM [inhibitor, single point] | –
2 | CC(C)N(C(=O)CSc1nc2ccc(Cl)cc2[nH]1)c1ccccc1 | inconclusive: 11.2 µM [inhibitor, single point] | –
3 | Cc1nn2c(c1-c1ccccc1OCc1ccccc1)N(Cc1cccc(O)c1)CCC2 | active: 2.24 µM | –
4 | CCn1cc(C(=O)N2CCN(c3cccc(C(F)(F)F)c3)CC2)c2cc(OC)c(OC)cc2c1=O | inconclusive: 8.91 µM [inhibitor, single point] | –
5 | Cn1ncc2c(NCCc3nnc(N)s3)nc(-c3ccncc3)nc21 | inconclusive: 15.8 µM [inhibitor, single point] | –
6 | CC(C)COc1ccc(C(=O)Nc2cccc(-c3nc4ccccc4[nH]3)c2)cc1 | inconclusive: 7.08 µM [inhibitor, single point] | –
7 | O=C(c1nccc2ccccc12)N1CC(N(Cc2cccnc2)C(=O)Nc2ccccc2)C1 | inconclusive: 17.8 µM [inhibitor, single point] | –
8 | CCOC(=O)c1cc(-c2ccccc2)n(CC(=O)NC(C)c2ccccc2)c1C (stereo unspecified) | inconclusive: 17.8 µM [inhibitor, single point] | –
9 | Cc1noc(C)c1-c1cc2cc(CO)oc2c(NCc2cccc(F)c2)n1 | inactive | –
10 | N#Cc1cc2c(nc1SCC(=O)Nc1cccc(C(F)(F)F)c1)C1CCN2CC1 | inconclusive: 10 µM [inhibitor, single point] | –
11 | Cc1cccc([C@H]2C[C@@H](O)[C@@H](O)[C@@H]2NCC(C)(C)O)c1 | inconclusive: 5.01 µM [inhibitor, full curve, poor fit] | –
12 | CC(C)CN(CCCNC(=O)Cn1ncc2c3ccccc3n(C)c2c1=O)CC(C)C | inactive | –
13 | CN(Cc1cccc(C(F)(F)F)c1)C(=O)c1cccc(C(F)(F)F)c1 | inconclusive: 17.8 µM [inhibitor, single point] | –
14 | CCn1cc(CN2CCN(C(=O)Cc3cccs3)CC2)ccc1=O | inactive | –
15 | CCS(=O)(=O)NCC1(COc2ccccc2)C[C@@H](O)[C@@H](O)C1 (stereo partly specified) | inactive | –
16 | COc1ccc2c(c1)CCc1c-2n[nH]c1C(=O)N1CCC(c2noc(COc3ccc(C)cc3)n2)CC1 | inconclusive: 3.98 µM [inhibitor, full curve, poor fit] | –
17 | COC(=O)[C@@H]1Cc2c([nH]c3ccccc23)[C@H]2C[C@@H](NCCNC(C)=O)C[C@@H](c3ccc(C(F)(F)F)cc3)N21 | inconclusive: 7.08 µM [inhibitor, partial curve, poor fit] | –
18 | Cc1ccccc1[C@H]1[C@@H](C(=O)NC(CO)CO)C[C@@](C)(C(=O)O)N1C | inactive | –
19 | CCc1nc2ccc(C(=O)N3CCN(c4ccccc4)CC3)cc2nc1CC | active: 6.31 µM | –
20 | CCOC(=O)N1CCc2c(sc(NCc3cccc(F)c3)c2C(=O)Nc2ccccc2OCC)C1 | active: 4.47 µM | –
21 | N#Cc1cccc(OCc2nc3c(n2Cc2ccccc2)C(=O)N(Cc2ccccc2F)CCN3)c1 | inconclusive: 8.91 µM [inhibitor, partial curve, poor fit] | –
22 | CCOc1ccc(/C=C(\C#N)c2nc3ccccc3c(=O)[nH]2)cc1OC | inconclusive: 11.2 µM [inhibitor, single point] | –

Row | Structure (SMILES) | Potency | activity, negative = inhibition
23 | COCCN1C(=O)c2ccccc2C(C(=O)N2CCN(c3ccccc3)CC2)C12CCCC2 (stereo unspecified) | inconclusive: 17.8 µM [inhibitor, single point] | –
24 | COc1ccc2[nH]c(C(=O)N3CCn4nc(CO)cc4C3)c(C)c2c1 | inactive | –
25 | COc1ccc(C)cc1NC(=O)C1CN(S(=O)(=O)C2CC2)CC12CCCCC2 (stereo unspecified) | inactive | –
26 | O=S(=O)(Cc1ccccc1F)N1CCC(c2noc(-c3cccnc3)n2)C1 (stereo unspecified) | – | inactive: 6.69% [at 5.79 µM]
27 | Cc1ccc(-n2c(=O)c3c(C)c(C(=O)N(C)C)sc3n(CC(=O)C(C)(C)C)c2=O)cc1C | inactive | –
28 | CC(=O)Nc1ccc(CNC[C@H]2COCc3nc4c(C)cccc4n32)cc1 | inconclusive: 31.6 µM [inhibitor, single point] | –
29 | Cc1cnc(C2CCC2)n1CC1CCN(C(=O)CC2CCCC2)CC1 | inconclusive: 0.0891 µM [inhibitor, single point] | –
30 | CCOC(=O)C1CCCN(C(=O)c2nn(-c3ccc(OC)cc3)c(=O)c3c2c2ccccc2n3C)C1 (stereo unspecified) | inconclusive: 11.2 µM [inhibitor, single point] | –
31 | O=C(CCc1ccccc1)NCCC1CCN(C(=O)Nc2cccc(F)c2)CC1 | inconclusive: 17.8 µM [inhibitor, partial curve, poor fit] | –
32 | Nc1nc(Nc2ccccc2F)sc1C(=O)c1ccc(Cl)cc1 | inconclusive: 8.91 µM [inhibitor, single point] | –
33 | Cc1noc(-c2ccccc2OC2CCN(C(=O)c3cc(C)[nH]n3)C2)n1 (stereo unspecified) | inactive | –
34 | Cc1cccc(NC(=O)CCS(=O)(=O)c2ccc3c(c2)n(C)c(=O)c(=O)n3C)c1C | inactive | –
35 | CC(=O)NCCCC(=O)N1CCOC2(CCN(C(=O)c3ccccc3)CC2)C1 | inactive | –
36 | CN(C)c1ccc(CN2CCC(c3nc4ccncc4[nH]3)C2)cc1 (stereo unspecified) | inactive | –
37 | COc1ccccc1OCCN1C(=O)C2(CCOCC2)CC1c1nnnn1C(C)(C)C (stereo unspecified) | inactive | –
38 | CN(CC(=O)NCC1CCN(c2cnn(C)c(=O)c2)C1)C1CCNCC1 (stereo unspecified) | inactive | –
39 | CC(C)NC[C@H]1COCc2nc3ccccc3n21 | inconclusive: 15.8 µM [inhibitor, partial curve] | –
40 | Cc1ccc(-c2noc([C@@H]3Cc4nc[nH]c4CN3C(=O)c3ccc(F)cc3)n2)cc1 | inactive | –
41 | Cc1cnc(CCN)n1Cc1ccccc1 | inconclusive: 3.55 µM [inhibitor, single point] | –
42 | CCc1nc(-c2c3n(c(=O)n(CC(=O)Nc4ccc(C)cc4Cl)c2=O)CCCC3)no1 | inconclusive: 17.8 µM [inhibitor, single point] | –
43 | COc1cc2cc(CN3CCC[C@H]3CO)c(-c3cccc(Cl)c3)nc2cc1OC | inconclusive: 11.2 µM [inhibitor, partial curve] | –
44 | C[C@H]1[C@@H]2[C@@H](O)C([C@H](C)C(=O)NCc3cccnc3)CC[C@@]2(C)CC[C@@H]1NC(=O)c1ccccc1 (stereo partly specified) | inconclusive: 20 µM [inhibitor, single point] | –

Row | Structure (SMILES) | Potency | activity, negative = inhibition
45 | CCc1noc(-c2cn(C3CCN(C(=O)c4cccc5[nH]ccc45)CC3)nn2)n1 | inconclusive: 3.55 µM [inhibitor, single point] | –
46 | COc1cccc(CN2Cc3nc(N4CCN(C)CC4)ccc3OCC2=O)c1 | inconclusive: 31.6 µM [inhibitor, single point] | –
47 | CCOc1cc(C(=O)NCCc2csc3nc(-c4ccc(C)cc4)nn23)cc(OCC)c1OCC | inconclusive: 17.8 µM [inhibitor, partial curve, poor fit] | –
48 | COc1cc(CN2CCC3(CCN(CC4CC4)CC3)C(CO)C2)ccc1F (stereo unspecified) | active: 8.91 µM | –
49 | COc1ccc(OC)c(-c2nnc3n(Cc4ccc(C)cc4)c(=O)c4ccccc4n23)c1 | inconclusive: 11.2 µM [inhibitor, single point] | –
50 | CCN(CC)C(=O)CSc1nc(-c2ccccc2F)nc2c1Cc1c(CO)cnc(C)c1O2 | active: 11.2 µM | –
51 | CC(C)c1nc(-c2ccc(OC3CCN(C(=O)CCc4nc5ccccc5[nH]4)C3)cc2)no1 (stereo unspecified) | active: 1.26 µM | –
52 | COc1ccc(C(=O)N2CCCn3cc(-c4ccccc4F)nc32)cn1 | inconclusive: 2 µM [inhibitor, full curve] | –
53 | CC(C)(C)OC(=O)N1CCC(c2c(C(=O)N3CCCCC3)cnn2-c2ccc(Cl)cc2)CC1 | inconclusive: 14.1 µM [inhibitor, single point] | –
54 | CC[C@H]1CN2CC[C@H]1C[C@@H]2CNS(=O)(=O)c1cccc(C#N)c1 | inconclusive: 15.8 µM [inhibitor, single point] | –
55 | COc1ccc2nc([C@H]3CCN(Cc4ccccc4F)C3)[nH]c2c1 | inconclusive: 12.6 µM [inhibitor, single point] | –
56 | CCOc1ccc(-c2cccc(NS(=O)(=O)c3c(C)cc(C)cc3C)c2)nn1 | inconclusive: 7.94 µM [inhibitor, single point] | –
57 | COc1ccccc1OCC(=O)NCC(c1ccc(Cl)cc1)N1CCCCC1 (stereo unspecified) | inconclusive: 8.91 µM [inhibitor, single point] | –
58 | CCN(C(=O)C1CCN(S(=O)(=O)c2ccc3c(c2)CCCN3C(C)=O)CC1)c1cccc(C)c1 | active: 12.6 µM | –
59 | O=C(NC1CCCCC1)[C@@H]1Cc2nc[nH]c2CN1Cc1ccc(C(F)(F)F)cc1 | inconclusive: 12.6 µM [inhibitor, partial curve, poor fit] | –
60 | COc1cccc(CNC(=O)C(=O)Nc2c3c(nn2-c2ccccc2)CSC3)c1 | inactive | –
61 | O=C(c1ccccc1)N1C[C@@H](CO)[C@H](c2nc(-c3cccnc3)no2)C1 | inactive | –
62 | c1ccc(Nc2cc3c(cn2)NCCN(Cc2ccccn2)C3)cc1 | inactive | –
63 | Cc1ccc(Cl)cc1NC(=O)Nc1cccc(-c2ccc(N3CCOCC3)nn2)c1 | inconclusive: 17.8 µM [inhibitor, single point] | –
64 | O=C(NCc1ccccn1)c1ccc2c(c1)n(Cc1cccc(F)c1)c(=O)c1ccnn12 | active: 5.01 µM | –
65 | O=C(c1ccccc1Cl)N1c2ncnn2C2(CCCCC2)[C@@H]2CCCC[C@@H]21 | inconclusive: 14.1 µM [inhibitor, partial curve, poor fit] | –
66 | COC(=O)c1ccc(OCC2c3cc(OC)c(OC)cc3CCN2C(=O)COc2ccc(Cl)cc2)cc1 (stereo unspecified) | active: 10 µM | –
